Source: publication PMC4336329 (PLoS ONE, 2015)
In all, about 310,000 compounds went through this assay and about 2,200 (0.71%) showed an effect of 50% or more. Effects have a minus sign here. This is one part of the list.

The molecules below were run against human ether-à-go-go-related gene (hERG) potassium channel (human, UniProt Q12809) (assay: primary screen, population patch clamp on CHO cells stably expressing hERG).
Chain of human ether-à-go-go-related gene (hERG) potassium channel (Q12809 whole entry, looked up): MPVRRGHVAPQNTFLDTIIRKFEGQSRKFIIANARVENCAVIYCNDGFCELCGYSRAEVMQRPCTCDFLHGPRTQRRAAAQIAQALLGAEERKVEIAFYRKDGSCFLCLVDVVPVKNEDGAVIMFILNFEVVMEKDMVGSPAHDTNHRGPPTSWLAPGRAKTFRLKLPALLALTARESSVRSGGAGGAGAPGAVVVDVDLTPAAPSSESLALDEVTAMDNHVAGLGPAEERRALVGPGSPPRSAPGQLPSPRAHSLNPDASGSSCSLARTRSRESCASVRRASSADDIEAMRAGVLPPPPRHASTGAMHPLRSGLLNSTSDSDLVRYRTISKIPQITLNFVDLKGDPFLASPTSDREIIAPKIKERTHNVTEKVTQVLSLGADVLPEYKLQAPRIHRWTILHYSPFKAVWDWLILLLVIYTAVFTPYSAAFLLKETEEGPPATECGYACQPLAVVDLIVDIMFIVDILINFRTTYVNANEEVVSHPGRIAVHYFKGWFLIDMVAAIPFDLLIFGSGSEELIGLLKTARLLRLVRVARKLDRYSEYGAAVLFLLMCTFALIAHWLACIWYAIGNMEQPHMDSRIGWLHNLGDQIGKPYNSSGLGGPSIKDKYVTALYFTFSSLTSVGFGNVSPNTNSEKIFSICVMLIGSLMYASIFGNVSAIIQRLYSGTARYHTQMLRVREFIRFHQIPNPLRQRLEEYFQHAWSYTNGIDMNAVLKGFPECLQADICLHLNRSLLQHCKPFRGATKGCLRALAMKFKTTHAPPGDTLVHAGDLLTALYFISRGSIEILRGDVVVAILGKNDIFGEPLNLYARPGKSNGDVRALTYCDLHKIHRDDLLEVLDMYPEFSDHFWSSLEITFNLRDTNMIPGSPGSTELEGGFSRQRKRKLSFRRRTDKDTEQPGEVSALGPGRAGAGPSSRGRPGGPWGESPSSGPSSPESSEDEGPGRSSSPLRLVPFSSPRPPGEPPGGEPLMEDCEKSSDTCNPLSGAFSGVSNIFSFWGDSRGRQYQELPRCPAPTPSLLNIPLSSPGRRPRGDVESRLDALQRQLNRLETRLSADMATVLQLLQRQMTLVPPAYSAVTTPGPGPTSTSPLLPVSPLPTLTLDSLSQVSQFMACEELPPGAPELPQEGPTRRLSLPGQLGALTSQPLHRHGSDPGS

Point of comparison: `CN/C=C(/Cl)P(=O)(OC(C)C)OC(C)C`, “hERG current change (%, negative = inhibition) at 1uM” value 11%. Against it:
- O=S(=O)(Cc1ccccc1)N1CCCC1 — lower, 10.9%
- CC1=C(C(=O)N2CCOCC2)C(c2ccc(OC(F)F)cc2)NC(=S)N1c1ccccc1 (stereo not drawn) — lower, 3.86%
- CNC(=O)c1[nH]cnc1C(=O)Nc1cccc(Cl)c1 — lower, -6.99%
- CCOC(=O)c1c(C)n(C)c2ccc(OC)c(NC(=O)CN3CCSCC3)c12 — higher, 12.8%
- CCn1c(C(C)NC(=O)c2ccc(OC)c(OC)c2)nc2ccccc21 (stereo not drawn) — lower, -10.2%
- COc1ccc(CNC(=O)CSc2nc(C)cs2)cc1 — lower, 8.12%
- Cc1cc(C)cc(NC(=S)NC2CC3CCCC(C2)N3Cc2cccs2)c1 (stereo not drawn) — lower, -2.45%
- COc1cc(F)c(C2=CC(=O)C[C@H](c3ccc(Cl)cc3)C2)cc1F — higher, 14.3%
- OC1(C(F)(F)F)CC(O)(C(F)(F)F)n2nc(-c3ccccc3)cc2N1 (stereo not drawn) — the same, 11%
- CCc1ccc(OC)c(S(=O)(=O)Nc2ccc(Cc3ccncc3)cc2)c1 — lower, 5.44%
- CCN1CCN(CC(O)COc2ccc3c(c2)CCC3)CC1.Cl (stereo not drawn) — lower, 8.4%
- COc1ccccc1-c1nnc(NC(=O)c2ccc(S(=O)(=O)N(C)CC3CCCO3)cc2)o1 (stereo not drawn) — lower, 5.69%
- CN(C(=O)c1ccc(Cl)nc1)C1(c2ccccc2Cl)CCCCC1=O (stereo not drawn) — lower, 5.36%
- CCNC(=O)c1ccc(N(C)S(=O)(=O)c2cccs2)cc1 — higher, 13.7%
- COc1ccc([C@H]2CC(=O)C=C(c3cccc(OC)c3)C2)cc1 — lower, -17.5%
- CCOC(=O)C1=CC[C@@H](c2cc3ccc(OC)cc3n2C)N(S(=O)(=O)c2ccc(C)cc2)[C@H]1C(=O)OCC — lower, 7.66%
- C=CCNC(=O)CCC(=O)NNc1nc2ccccc2c2nc(-c3ccccc3)nn12 — lower, 7.9%
- CCOC(=O)C1CCCN(C/C=C/c2ccccc2[N+](=O)[O-])C1 (stereo not drawn) — lower, -42.6%
- O=C(COC(=O)c1cc2ccccc2cc1O)c1ccccc1 — lower, 8.24%
- O=C(/C=C\Nc1ccccc1Br)c1ccc2c(c1)OCO2 — higher, 13.7%
- O=C(/C=C/c1ccco1)N(Cc1ccc(F)cc1)C1CCS(=O)(=O)C1 (stereo not drawn) — lower, -3.56%
- COc1ccccc1OCc1nnc(SCC(=O)N2CCCC2)o1 — higher, 15.8%
- Cc1cccc(N2CCN(C(=O)c3cc4c(=O)[nH]c5ccccc5c4n3C)CC2)c1C — higher, 11.2%
- Cc1noc(C)c1C(=O)OCC(=O)NCc1ccc(Cl)cc1 — lower, 8.49%
- Cc1csc(C(C)N(C)C(=O)CCc2nnc(CCc3ccccc3)o2)n1 (stereo not drawn) — lower, -1.78%
- O=C(CN(CC1CCCO1)C(=O)CNS(=O)(=O)c1ccccc1)NCc1ccccc1 (stereo not drawn) — lower, 1.76%
- CS(=O)(=O)NN1C(=O)c2ccccc2NC1c1cc2ccccc2nc1Cl (stereo not drawn) — lower, -8.61%
- COCCn1nnnc1C(c1cccc(OC)c1OC)N1CCN(C2CCCCC2)CC1.Cl (stereo not drawn) — lower, 5.77%
- COc1ccc(N=C(C)c2c(O)n(C3CCCCC3)c(=O)[nH]c2=O)c(OC)c1 — lower, 10.5%
- COCCn1c(SCC(=O)Nc2ccc3c(c2)OCCO3)nnc1C(C)C — lower, 9.63%
- Cn1c(=O)c2c(ncn2CCOc2cccc(Br)c2)n(C)c1=O — lower, -0.237%
- CCOC(=O)NC(=O)/C(C#N)=N\Nc1ccc(Cl)cc1 — higher, 14.5%
- O=C(O)C1CC=CCC1C(=O)Nc1ccc2c(c1)CCC2 (stereo not drawn) — lower, 6.25%
- O=C(O)C1=C[C@H](c2ccccc2)C[C@H](OCc2ccc(CO)cc2)O1 — higher, 13.1%
- COc1cc(S(=O)(=O)Nc2cccc(C)c2)ccc1NC(=O)c1ccncc1 — higher, 22.6%
- COc1cc(OC)c(C2C(C(=O)Nc3ccc(C)cc3C)=C(C)Nc3ncnn32)cc1OC (stereo not drawn) — higher, 15.1%
- Cc1ccc(-c2nnn(CC(=O)N(c3ccc(F)cc3)C(C(=O)NC(C)(C)C)c3ccco3)n2)o1 (stereo not drawn) — lower, 7.02%
- COc1cc(CN2CCC(Cc3ccccc3)CC2)cc([N+](=O)[O-])c1O — lower, 8.72%
- COc1cc(/C=C(\C#N)c2nn(CCO)c(N)c2C#N)cc(OC)c1OC — higher, 20.2%
- Cc1cc(=S)n(-c2ccccc2)n1C — lower, 10.3%
- CSc1nc2ccc3nc(NC(=O)c4ccccc4)sc3c2s1 — higher, 12.7%
- CN(C)Cc1ccccc1COc1ccccc1.O=C(O)/C=C\C(=O)O — lower, 4.28%
- CC(=O)NCc1ccc(C(=O)CCl)cc1 — lower, 7.82%
- CC(=O)Oc1cccc(N2C(=O)C3CC=CCC3C2=O)c1 (stereo not drawn) — higher, 12%
- COCCN(C(=O)COC(=O)CC1CCCCC1)c1c(N)n(Cc2ccccc2)c(=O)[nH]c1=O — higher, 15.3%
- Cc1ccc(S(=O)(=O)NC2CCOC(C)(C)C2)cc1 (stereo not drawn) — lower, 8.48%
- COCCN(C(=O)c1snc(C(N)=O)c1N)C(C(=O)NC1CCCCC1)c1cc(OC)c(OC)c(OC)c1 (stereo not drawn) — higher, 15.4%
- CC(C)c1ccc(-c2cc(C(=O)N3N=C(C(F)F)CC3(O)C(F)F)c3ccccc3n2)cc1 (stereo not drawn) — higher, 12.3%
- O=C(NCc1ccc(F)cc1)NC(=O)c1ccc(Cl)cc1 — lower, 8.99%
- CCC(C(=O)NCCCN1CCN(C)CC1)n1nc(C)c2sc3ccccc3c2c1=O (stereo not drawn) — lower, 4.63%
- CC1Sc2ccc(S(=O)(=O)CCC(=O)NCc3ccccc3)cc2NC1=O (stereo not drawn) — lower, 10.7%
- COc1ccc(CCNCC(=O)Nc2ccc(C)c(S(=O)(=O)N(C)C)c2)cc1OC — lower, -3.32%
- CCCCOc1ccc(C(=O)N2CCN(CC(=O)Nc3ccc(C)cc3)CC2)cc1OC — lower, -17.7%
- COc1ccc(NC(=O)Cc2nnc(SCC(=O)Nc3nccs3)n2C)cc1 — lower, 10.8%
- COc1ccc(Nc2ncnc3sccc23)cc1 — higher, 12%
- Cc1cc(C)c(C(=O)CN2C(=O)NC3(CCCCC3)C2=O)cc1C — lower, 9.5%
- Cc1ccc(NC2=NCC(=O)N2Cc2ccc3c(c2)OCO3)c(C)c1 — lower, 9.18%
- Nc1nc(Nc2ccc(Cl)cc2Cl)nc(C(F)(F)F)n1 — lower, 8.42%
- Cc1oc(-c2ccccc2F)nc1CN1CCC(C(=O)NCc2cccs2)CC1 — lower, -18.7%
- S=c1nc(SCc2ccccc2)[nH]c2ccccc12 — lower, 7.46%
- O=C(NC1CCCCCC1)C1CCCN(S(=O)(=O)c2cnc[nH]2)C1 (stereo not drawn) — higher, 18.7%
- COc1cccc(CC2(CO)CCN(C(=O)NCCc3ccccc3)CC2)c1 — higher, 17.8%
- Cc1c(C(=O)C(=O)NCc2cccs2)c2ccccc2n1C — lower, -0.694%
- COc1ccc(-n2ccnc2SCC(=O)Nc2ccc(OC)cc2OC)cc1 — lower, 8.97%
- CN1CCN(Cc2nc3ccccc3c(=O)n2Cc2nc(-c3ccc4ccccc4c3)cs2)CC1 — lower, 2.57%
- CC(C(=O)NC1CCCc2ccccc21)N1CCN(c2ccc(F)cc2)CC1 (stereo not drawn) — lower, 4.73%
- O=C(N/N=C/c1ccc(OC(F)F)cc1)C1=COCCO1 — lower, 6.52%
- CCC(C(=O)NCCc1ccc(C)cc1)n1nc(C)c2c(C)n(-c3ccccc3)nc2c1=O (stereo not drawn) — lower, 6.96%
- CN(C(=O)COc1ccc(Cl)cc1Br)C1CCCCC1 — lower, 5.67%
- CC(OCC(O)CN1CCCCC1CCO)c1ccc(Cl)cc1 (stereo not drawn) — higher, 15.4%
- CC1CCN(S(=O)(=O)c2cccc(C(=O)NCC3CCCO3)c2)CC1 (stereo not drawn) — lower, 9.95%
- CN(Cc1ccccc1)C(=O)c1ccccc1NC(=O)c1ccccc1 — lower, -2.95%
- CCOC(=O)Cc1nnc(NCc2ccccc2)c2ccccc12 — lower, 5.85%
- COc1ccnc(-n2cccc2C#N)c1C#N — lower, 2.41%
- CC(=O)CSc1ncnc2sc3c(c12)CCC(C)C3 (stereo not drawn) — lower, 3.45%
- Cc1cccc(C)c1OC(=O)C(c1ccccc1)c1ccccc1 — lower, 8.3%
- CCN1C(=O)c2cccc3c(S(=O)(=O)Nc4ccccn4)ccc1c23 — higher, 12.7%
- O=C(NC1CCCCC1)C(c1ccccc1)N1CCOCC1 (stereo not drawn) — lower, 8.98%
- CCCC(=O)N(c1ccc(F)cc1)C1C=CS(=O)(=O)C1 (stereo not drawn) — higher, 13.8%
- CN1C(=O)C(Cc2cnc[nH]2)NC1=S (stereo not drawn) — higher, 21.1%
- CCOC(=O)C(=CNc1ccc(C)cc1C)C(=O)OCC — higher, 15.7%
- C=C(C)COc1ccc(-c2[nH]ncc2Oc2ccc(OC)cc2)c(O)c1 — lower, -3.87%
- c1ccc2oc(-c3[nH]ncc3CN3CCC(N4CCSCC4)CC3)cc2c1 — lower, -32.6%
- Cc1cccc(OCC(=O)NN2C(=O)C3C4C=CC(O4)C3C2=O)c1 (stereo not drawn) — higher, 17.8%
- CN1CCCN(CC(O)COCc2cccs2)CC1 (stereo not drawn) — lower, 5.43%
- C=CCOc1ccc(/C=N/NC(=O)C(=O)N2CCCCCC2)cc1OC — lower, 9.96%
- O=[N+]([O-])c1ccc(N/N=C2\CC3CC=CC23)cc1 (stereo not drawn) — lower, 6.62%
- Cc1ccc(C)c(S(=O)(=O)NNC(=O)c2sc(NS(=O)(=O)c3ccccc3)nc2C)c1 — higher, 18.5%
- COc1ccc(CCN2CC(C(=O)NCCc3cnn(C)c3)CCC2=O)cc1 (stereo not drawn) — higher, 13.4%
